US20240209078A1 (Amgen, published 2024)
Where two headings read alike, the source gives them in different places.

Tests used:
Assay in all cases: cell-based or functional assay
[1] = target: T1, human CDH3 (Cadherin-3, P-Cadherin) (human, UniProt P22223 108-829)
human MSLN (mesothelin) [2] = target: T2, human MSLN (mesothelin) (human, UniProt Q13421 37-598)
[3] = target: T1, human CDH3 (Cadherin-3, P-Cadherin); remark: listed apart in the source
human MSLN (mesothelin) [4] = target: T2, human MSLN (mesothelin); remark: listed apart in the source
[5] = target: T1, human CDH3 (Cadherin-3, P-Cadherin); remark: listed apart in the source
human MSLN (mesothelin) [6] = target: T2, human MSLN (mesothelin); remark: listed apart in the source
CD3ε chain [7] = target: T3, CD3ε chain (human, UniProt P07766 23-126, limits assumed)
CD3ε chain [8] = target: T3, CD3ε chain; remark: listed apart in the source
T3 sequence (P07766 23-126 limits assumed): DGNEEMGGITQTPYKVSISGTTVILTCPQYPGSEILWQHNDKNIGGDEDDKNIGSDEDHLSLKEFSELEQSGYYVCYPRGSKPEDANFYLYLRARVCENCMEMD

Activity reduction of single CD3-binding domain in molecule compared to high affinity CD3 binding domain I2C with KD of 1.2E-08M (CD3ε chain [7]) [fold] | Activity reduction of single CD3 binding domain in molecule compared to high affinity binding domain I2C with KD 1.2E-08M (CD3ε chain [8]) [fold] | Binder | cytotoxicity EC50, HCT 116 KO MSLN cells [1] [nM] | cytotoxicity EC50, HCT 116 KO CDH3 cells (human MSLN (mesothelin) [2]) [nM] | cytotoxicity EC50, GSU KO MSLN cells [3] [nM] | cytotoxicity EC50, GSU KO CDH3 cells (human MSLN (mesothelin) [4]) [nM] | cytotoxicity EC50, GSU KO MSLN cells [5] [nM] | cytotoxicity EC50, GSU KO CDH3 cells (human MSLN (mesothelin) [6]) [nM]
– | – | MS 15-B12 CC × I2L × G4 × scFc × G4 × CH3 15-E11 CC × I2L (bispecific antibody) QVQLQESGPGLVKPSETLSLTCTVSGGSISSSSYFWGWIRQPPGKCLEWIGNIYYSGSSNYNPSLKSRVTISVDTSKNQFSLKLSSVTAADTAVYYCARLPRGDRDAFDIWGQGTMVTVSSGGGGSGGGGSGGGGSDIVMTQSPSSLSASVGDRVTITCRASQGISNYLAWYQQKPGKVPKLLIYAASTLQSGVPSRFSGSGSGTDFTLTISSLQPEDFATYYCQQSYSTPFTFGCGTKVEIKSGGGGSEVQLVESGGGLVQPGGSLKLSCAASGFTFNKYAMNWVRQAPGKGMEWVARIRSKYNNYATYYADAVKDRFTISRDDSKNTLYLQMNNLKTEDTAVYYCVRAGNFGSSYISYFAYWGQGTLVTVSSGGGGSGGGGSGGGGSQTVVTQEPSLTVSPGGTVTITCGSSTGAVTSGNYPNWIQKKPGQAPRGLIGGTKFLAPGTPARFSGSLEGGKAALTLSGVQPEDEAEYYCVLYYSNRWVFGSGTKLTVLGGGG[sequence of human IgG1 Fc with R292C N297G V302C (EU numbers) omitted]GGGGSGGGGSGGGGSGGGGSGGGGSGGGGS[sequence of human IgG1 Fc with R292C N297G V302C (EU numbers) omitted]GGGGQVQLVQSGAEVKKPGASVKVSCKASGYTFTNYWMNWVRQAPGQCLEWMGNIAYGVKGTNYNQKFQGRVTMTVDTSSSTAYMELSRLRSDDTAVYYCATRYFYVMDYWGQGTLVTVSSGGGGSGGGGSGGGGSDIQMTQSPSSLSASVGDRVTITCRASQDISNYLNWYQQKPGKVPKLLIYYTSRLHSGVPSRFSGSGSGTDFTLTISSLQPEDVATYYCVQYAQFPLTFGCGTKVEIKSGGGGSEVQLVESGGGLVQPGGSLKLSCAASGFTFNKYAMNWVRQAPGKGMEWVARIRSKYNNYATYYADAVKDRFTISRDDSKNTLYLQMNNLKTEDTAVYYCVRAGNFGSSYISYFAYWGQGTLVTVSSGGGGSGGGGSGGGGSQTVVTQEPSLTVSPGGTVTITCGSSTGAVTSGNYPNWIQKKPGQAPRGLIGGTKFLAPGTPARFSGSLEGGKAALTLSGVQPEDEAEYYCVLYYSNRWVFGSGTKLTVL | 0.0011 | 0.0183 | 0.177 | 0.289 | 0.256 | 0.339
~98 | ~98 | CL1 9-G4 CC × 6H10.09 × scFc × FL 4-E9 CC × 6H10.09 (bispecific antibody) QVQLVQSGAEVKKPGASVKVSCKASGYTFTDYYMHWVRQAPGQCLEWMGWINPNSGGPNYAQKFQGRVTMTRDTSISTAHMELSRLRSDDTAVYYCAREKHAVAGIGFDYWGQGTLVTVSSGGGGSGGGGSGGGGSDIQMTQSPSSVSASVGDRVTITCQASQDISNYLNWYQQKPGKAPKLLIYAASSLESGVPSRFSGSGSGTDFTLTISSLQPEDFATYYCQQANSFPLTFGCGTKVDIKSGGGGSEVQLVESGGGLVQPGGSLKLSCAASGFTFNKYAMNWVRQAPGKGMEWVARIRSKYNNYATYYADAVKDRFTISRDDSKNTLYLQMNNLKTEDTAVYYCVRAGNFGSSYISYFAYWGQGTLVTVSSGGGGSGGGGSGGGGSQTVVTQEPSLTVSPGGTVTITCGSSTGAVTSGNYPNWIQKKPGQAPRGLIGGTKFLAPGTPARFSGSLEGGKAALTLSGVQPEDEAEYYCVLYYSNRWVFGSGTKLTVLGGGGSGGGGSGGGGS[sequence of human IgG1 Fc with R292C N297G V302C (EU numbers) omitted]GGGGSGGGGSGGGGSGGGGSGGGGSGGGGS[sequence of human IgG1 Fc with R292C N297G V302C (EU numbers) omitted]GGGGSGGGGSGGGGSQVTLKESGPTLVKPTETLTLTCTVSGFSFRNARMGVSWIRQPPGKCLEWLAHIFSNDEKSYSTSLKSRLTISKDTSKSQVVLTMTNMDPVDTATYFCARVPEYSSGWYRFDYWGQGTLVTVSSGGGGSGGGGSGGGGSDIQMTQSPSSLSASVGDRVTISCRASQSIRSYLNWYQQKPGKAPKLLIYATSSLQGGVPSRFSGSGSGTDFTLTISSLQPEDFATYYCQQSYSTPFTFGCGTKVEIKSGGGGSEVQLVESGGGLVQPGGSLKLSCAASGFTFNKYAMNWVRQAPGKGMEWVARIRSKYNNYATYYADAVKDRFTISRDDSKNTLYLQMNNLKTEDTAVYYCVRAGNFGSSYISYFAYWGQGTLVTVSSGGGGSGGGGSGGGGSQTVVTQEPSLTVSPGGTVTITCGSSTGAVTSGNYPNWIQKKPGQAPRGLIGGTKFLAPGTPARFSGSLEGGKAALTLSGVQPEDEAEYYCVLYYSNRWVFGSGTKLTVL | – | – | – | – | – | –
